# According to PubChem BioAssay AID602233 (National Center for Advancing Translational Sciences (NCATS), 2012):
# Among all 380,000 compounds or so, about 170 (0.045%) were called active. This list was built around the results that the source calls inconclusive (neither active nor inactive); the mix of calls is not that of the screen. Calls follow the shape of the dose curve; as a rule, active = well fitted inhibition curve with a large enough effect; inconclusive = small, poorly fitted or top-dose-only effect; inactive = no such curve, though single readings can be large or run the other way. No potency is given beside an inconclusive call; the fits are too rough.
# Biological target: Phosphoglycerate kinase, glycosomal (Trypanosoma brucei brucei) (UniProt P07378)
# Assay: qHTS Assay to Find Inhibitors of Phosphoglycerate Kinase; also: nearly all actives have a fitted effect of over 60% in size
# Conditions: PGK/GAPDH coupled, Kinase-Glo luminescence, 60 min; series mostly up to 57.5 µM; activity change, negative = inhibition: at the top concentration
# How it was run: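 Luminescent ATP detection (Kinase-Glo Plus) follows a 60-minute room-temperature incubation, with wells lacking PGK as controls. Buffer: 100 mM TEA (pH 7.6), 5 mM MgCl2, 0.01% Tween-20. Coupling enzyme GAPDH (100 nM final) supplies unstable 1,3-BPG in-well.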
# % is scaled to controls: 0 for no effect and ±100 for the full control effect; potency is read from the fitted curve at half-maximal effect; tags tell the direction and shape of the fitted curve.
SMILES,Potency,outcome,"activity change, negative = inhibition"
CCCCCCCCCCCCCCCCCCNc1ccn(C2OC(COP(=O)(O)OCC3OC(n4cc(F)c(=O)[nH]c4=O)CC3O)C(O)C2O)c(=O)n1 (stereo unspecified),"inconclusive [inhibitor, partial curve, poor fit]",–,–
CC(C)CN(C(=O)COC(=O)c1cc2c(s1)CCC2)C1CCS(=O)(=O)C1 (stereo unspecified),"inconclusive [inhibitor, partial curve, poor fit]",–,–
O=[N+]([O-])c1ccc(N=Nc2ccc(O)c3ccccc23)cc1,"inconclusive [inhibitor, partial curve]",–,–
O=S(=O)(O)c1cc(O)c2c(O)c(N=Nc3cc(Cl)ccc3O)c(S(=O)(=O)O)cc2c1,"inconclusive [inhibitor, partial curve, poor fit]",–,–
O=C(CN1C(=O)S/C(=C\C=C\c2ccccc2)C1=O)Nc1ccc(C(=O)O)cc1,"inconclusive [inhibitor, partial curve, poor fit]",–,–
C/C(=N\NC(=O)c1ccc(NS(=O)(=O)c2cccs2)cc1)c1ccccc1,–,inactive,–
CCCCSCc1ccc(C(=O)O)o1,–,inactive,–
Cc1ccc(C)n1Cc1ccc(C(=O)O)cc1,active: 3.16 µM,–,–
CCOC(=O)c1[nH]c(C)c(C(=O)Nc2ccccc2F)c1C,"inconclusive [inhibitor, single point]",–,–
O=C(CN1C(=O)/C(=C2/SC(=S)N(CCS(=O)(=O)O)C2=O)c2ccccc21)Nc1cccc(Br)c1,"inconclusive [inhibitor, partial curve]",–,–
CCOc1cc(/C=N/N=C2/NC(=O)C(CC(=O)O)S2)ccc1OCc1ccc(Cl)cc1Cl (stereo unspecified),"inconclusive [inhibitor, partial curve, poor fit]",–,–
CCOc1ccc(Nc2nc(N)c3ccccc3n2)cc1,"inconclusive [inhibitor, partial curve, poor fit]",–,–
O=C(O)c1ccc(N/N=C/C=C/c2ccc([N+](=O)[O-])o2)cc1,"inconclusive [inhibitor, partial curve, poor fit]",–,–
Cc1cc(NC(=O)c2ccc3c(c2)OCO3)ccc1NC(=O)c1ccco1,"inconclusive [inhibitor, partial curve, poor fit]",–,–
COc1ccc(-c2cc(C(=O)NCC(C)C)no2)cc1,"inconclusive [inhibitor, single point]",–,–
CCOC(=O)C1CCN(c2ccc(-c3cccs3)nn2)CC1,"inconclusive [inhibitor, single point]",–,–
NS(=O)(=O)c1ccc(N2C(=O)C3CC=CCC3C2=O)cc1 (stereo unspecified),"inconclusive [inhibitor, single point]",–,–
COc1ccc(CCNC(=O)c2cc3c(=O)n4ccccc4nc3n(CCCN3CCOCC3)c2=N)cc1OC,–,–,inactive: 1.25%
O=C(O)c1ccc2c(c1)[C@@H]1C=CC[C@@H]1[C@H](c1ccccn1)N2,"inconclusive [inhibitor, partial curve]",–,–
O=C(Nc1nc2ccc(F)cc2s1)C1=COCCO1,"inconclusive [inhibitor, single point]",–,–
CCc1ccc(NC(=S)N2CCCC(C(F)(F)F)C2)cc1 (stereo unspecified),"inconclusive [inhibitor, single point]",–,–
Cc1cccc(N2CCN(C(=O)CCc3c(C)nc4ncnn4c3C)CC2)c1C,–,–,inactive: -1.67%

SMILES,Potency,outcome,"activity change, negative = inhibition"
C/C(N)=C(/C#N)C(=O)CSc1nc2ccccc2[nH]1,"inconclusive [inhibitor, partial curve, poor fit]",–,–
N#C/C(=C\c1coc2ccc(O)cc2c1=O)C(=O)Nc1nc2ccccc2s1,"inconclusive [inhibitor, single point]",–,–
Cc1ccc(/C=C/c2nc3ccccc3[nH]2)cc1,"inconclusive [inhibitor, single point]",–,–
O=C(CSc1nc2c(c(=O)[nH]1)CN(Cc1ccc3c(c1)OCO3)CC2)Nc1cccc(Cl)c1,"inconclusive [inhibitor, partial curve, poor fit]",–,–
Cc1[nH][nH]c(=O)c1C(c1ccc(-c2cccc(C(=O)O)c2)o1)c1c(C)[nH][nH]c1=O,"inconclusive [inhibitor, partial curve, poor fit]",–,–
CCOC(=O)c1c(C)sc(-c2c(-c3cc(C)ccc3C)[nH]c3c2c(=O)n(C)c(=O)n3C)c1O,–,–,inactive: -0.631%
Cc1cccc(C(=O)O/N=C(\N)c2ccccn2)c1,"inconclusive [inhibitor, single point]",–,–
COc1ccc(NC(=O)c2ccccn2)cc1,"inconclusive [inhibitor, partial curve, poor fit]",–,–
CN(CCc1ccccc1)C1CCCN(S(=O)(=O)c2cccc(F)c2)C1 (stereo unspecified),"inconclusive [inhibitor, single point]",–,–
C[C@H]1CCCCO[C@H](CN(C)Cc2ccccc2)[C@@H](C)CN([C@@H](C)CO)C(=O)c2cc(NC(=O)CCC(F)(F)F)ccc2O1,–,–,inactive: -0.928%
CCOc1ccc(/C=N/NC(=O)c2ccoc2C)cc1OC,"inconclusive [inhibitor, single point]",–,–
Cc1ccc(NS(=O)(=O)c2ccc(C)c(NC(=O)COc3ccccc3)c2)c(C)c1,–,–,inactive: -3.48%
C/C(=N\Nc1ccc(C(=O)O)cc1)c1ccc(Br)cc1,"inconclusive [inhibitor, single point]",–,–
Cc1cc(/C=C(/C#N)c2nc3ccccc3[nH]2)c(C)n1-c1ccccc1C(=O)O,"inconclusive [inhibitor, partial curve]",–,–
Oc1ccccc1C=NN=Cc1c(O)ccc2ccccc12,–,–,inactive: -4.43%
COc1cccc(NC(=S)N(Cc2ccco2)C(C)c2ccco2)c1 (stereo unspecified),"inconclusive [inhibitor, partial curve]",–,–
COc1ccc2nc3cc(Cl)ccc3c(Nc3cc(C(C)C)c(O)cc3C)c2c1,–,inactive,–
Cc1ccc(-c2nc3ccccc3[nH]2)cc1N,"inconclusive [inhibitor, partial curve, poor fit]",–,–
COc1cccc(CNC(=O)CN2C(=O)N(c3c(C)cccc3C)S(=O)(=O)c3ccccc32)c1OC,–,–,inactive: -0.385%
Nc1nonc1-c1nc2ccccc2n1CC(=O)N/N=C/c1ccc(-c2cccc(C(=O)O)c2)o1,"inconclusive [inhibitor, single point]",–,–
COc1cc(NS(=O)(=O)c2ccc(NC(=S)NC(=O)/C=C/c3ccc(OC)c(OC)c3)cc2)ncn1,"inconclusive [inhibitor, full curve]",–,–
COc1ccccc1-n1c(=O)[nH]c2c(C(N)=O)nc(CC(C)C)nc21,–,inactive,–

SMILES,Potency,outcome,"activity change, negative = inhibition"
O=C(c1ccco1)N1CCC(c2nc3c(nnn3Cc3ccccc3Cl)c(=O)[nH]2)CC1,–,–,inactive: 4.18%
CCN1C(=O)/C(=C\C=C2/C=CC=CN2CC)SC1=S,"inconclusive [inhibitor, partial curve, poor fit]",–,–
CN(C)c1ccc2nc3c(=O)[nH]c(=O)nc-3n(CC(O)C(O)C(O)CO)c2c1 (stereo unspecified),"inconclusive [inhibitor, partial curve, poor fit]",–,–
COc1cc(OC)c2c(C)c(CC(=O)NCc3ccccc3OC)c(=O)oc2c1,"inconclusive [inhibitor, single point]",–,–
COc1ccc(Cl)cc1NC(=O)CCn1nc(C)cc1C,–,–,inactive: -13.9%
COc1ccc(CCCCCCOCc2ccccc2)cc1,–,–,inactive: 0.89%
COc1ccc(NC(=O)CN(C)C(=O)c2cc(-c3ccco3)nc3ccccc23)cc1,"inconclusive [inhibitor, single point]",–,–
O=C(O)c1ccccc1-c1c2cc(I)c(=O)c(I)c-2oc2c(I)c(O)c(I)cc12,"inconclusive [inhibitor, partial curve, poor fit]",–,–
Cc1ccc2occ(/C=N/O)c(=O)c2c1,–,–,inactive: -8.8%
O=C(O)Cc1ccc(NC(=O)Nc2ccc(Br)cc2)cc1,–,–,inactive: 1.5%
CN(CCCC(=O)O)c1ccc(N=Nc2ccc([N+](=O)[O-])cc2)cc1,"inconclusive [inhibitor, partial curve, poor fit]",–,–
S=C1NC2(CCCCC2)NN1c1ccccc1,–,–,inactive: -5.19%
Nc1ccc2c(c1)C(=O)c1ccccc1C2=O,–,–,inactive: 2.66%
c1ccc(-c2cn3c(n2)-c2ccccc2C3)cc1,"inconclusive [inhibitor, partial curve, poor fit]",–,–
Cc1ccc(C)c(S(=O)(=O)c2cn(C)c3cc(N4CCCCC4C)c(F)cc3c2=O)c1 (stereo unspecified),–,–,inactive: -4.74%
COc1ccccc1OCCCSc1nc(-c2ccc(C(C)(C)C)cc2)nc2cc(=O)[nH]n12,–,–,inactive: -13.4%
CC1OC(OCC2OC(Oc3c(-c4ccc(O)cc4)oc4cc(O)cc(O)c4c3=O)C(O)C(O)C2O)C(O)C(O)C1O (stereo unspecified),"inconclusive [inhibitor, partial curve]",–,–
N/C(=N\OC(=O)c1ccco1)c1ccccn1,"inconclusive [inhibitor, single point]",–,–
Nc1c(/C=C2/C=CC(=O)C(O)=C2)c(=O)nc2sc(CC(=O)N3CCCC3)nn12,"inconclusive [inhibitor, single point]",–,–
COc1cccc(/C=C2\CCc3ccccc3C2=O)c1,"inconclusive [inhibitor, partial curve, poor fit]",–,–
Clc1ccccc1CSc1nnc(-c2ccco2)c(-c2ccco2)n1,"inconclusive [inhibitor, partial curve, poor fit]",–,–
NS(=O)(=O)c1ccc(N=Nc2ccc(=O)[nH]c2O)cc1,"inconclusive [inhibitor, partial curve, poor fit]",–,–
